The text below walks through data of paper PMC4336329 (PLoS ONE, 2015).

The structures appear in SMILES notation. Out of some 310,000 compounds screened, about 2,200 (0.71%) showed an effect of 50% or more. Effects have a minus sign here. Some of the results follow.

Sequence of human ether-à-go-go-related gene (hERG) potassium channel (Q12809 whole entry, looked up): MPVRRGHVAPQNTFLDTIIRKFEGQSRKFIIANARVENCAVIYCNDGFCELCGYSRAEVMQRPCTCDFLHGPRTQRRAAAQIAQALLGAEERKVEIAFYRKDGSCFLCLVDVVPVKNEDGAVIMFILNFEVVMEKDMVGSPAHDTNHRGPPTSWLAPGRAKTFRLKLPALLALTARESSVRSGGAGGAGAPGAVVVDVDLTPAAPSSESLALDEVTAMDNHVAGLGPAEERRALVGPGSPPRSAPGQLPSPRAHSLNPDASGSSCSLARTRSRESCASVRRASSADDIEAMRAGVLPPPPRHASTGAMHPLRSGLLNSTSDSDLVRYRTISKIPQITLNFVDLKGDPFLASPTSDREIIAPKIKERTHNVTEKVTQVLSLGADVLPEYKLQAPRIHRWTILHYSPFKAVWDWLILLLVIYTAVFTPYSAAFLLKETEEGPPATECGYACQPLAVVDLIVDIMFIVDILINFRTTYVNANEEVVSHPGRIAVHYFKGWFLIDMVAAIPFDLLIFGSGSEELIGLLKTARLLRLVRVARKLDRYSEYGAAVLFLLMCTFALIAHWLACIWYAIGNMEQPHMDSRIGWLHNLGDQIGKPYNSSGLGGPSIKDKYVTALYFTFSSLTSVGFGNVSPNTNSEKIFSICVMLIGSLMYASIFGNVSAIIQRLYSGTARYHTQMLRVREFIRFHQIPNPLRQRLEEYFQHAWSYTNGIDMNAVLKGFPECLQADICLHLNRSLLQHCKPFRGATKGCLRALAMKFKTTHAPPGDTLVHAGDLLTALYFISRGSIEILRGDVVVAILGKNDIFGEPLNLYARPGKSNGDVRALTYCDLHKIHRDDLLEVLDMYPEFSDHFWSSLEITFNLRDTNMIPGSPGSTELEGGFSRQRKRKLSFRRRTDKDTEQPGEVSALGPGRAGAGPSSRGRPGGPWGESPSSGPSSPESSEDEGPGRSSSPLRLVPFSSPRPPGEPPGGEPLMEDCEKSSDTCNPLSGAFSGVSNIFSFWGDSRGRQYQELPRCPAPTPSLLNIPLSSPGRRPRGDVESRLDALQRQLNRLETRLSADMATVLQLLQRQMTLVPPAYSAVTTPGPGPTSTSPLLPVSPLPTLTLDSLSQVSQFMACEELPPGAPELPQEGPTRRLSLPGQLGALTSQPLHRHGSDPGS

The test concerns the target human ether-à-go-go-related gene (hERG) potassium channel (human, UniProt Q12809). The test can be described thus: primary screen, population patch clamp on CHO cells stably expressing hERG.
Regarding `Cc1cc(C2CC(=O)Nc3ccccc3S2)c(C)s1` (centres unmarked), the “hERG current change (%, negative = inhibition) at 1uM” value stood at 11.1%.

Consider `CC1CCC(NC(=O)CN2C(=O)COc3ccc(S(=O)(=O)N4CCCC4)cc32)CC1` (centres unmarked), for which the “hERG current change (%, negative = inhibition) at 1uM” value is recorded as 4.56%. To `CC1CN(C(=O)c2cccc(COc3ccc(Br)cc3)c2)CC(C)O1` (centres unmarked) belongs 12.9%; to `Cc1cc(C)nc(-n2ncc3c2CC(c2cccc(Cl)c2)CC3=O)n1` (centres unmarked), 7.76%; to `CCN(CC)S(=O)(=O)c1ccc(C)c(NC(=O)CN2CCN(C)CC2)c1.O=C(O)C(=O)O`, 6%.

In the case of `Cc1cc(C(=O)NCC(c2ccco2)N(C)C)no1` (centres unmarked), the “hERG current change (%, negative = inhibition) at 1uM” value was determined as 8.48%.

As for `Cc1cc(N2CCN(c3ccccc3Cl)CC2)n2cc(-c3ccccc3)nc2n1`, the “hERG current change (%, negative = inhibition) at 1uM” value is -2.03%. To `COc1ccc(CC(C)CC(=O)NCCc2ccc(OC)c(OC)c2)cc1` (centres unmarked) belongs 10.7%; to `CCOc1ncccc1C(=O)N1CCN(C(c2ccccc2)c2ccccc2)CC1`, 12.8%; to `Cc1cc(/C=C2\C(=O)NC(=O)N(c3cccc(Br)c3)C2=O)c(C)n1C`, 4.13%. To `N#CC(C(=O)c1ccccc1Cl)=C1SCCCS1` belongs -2.83%; to `O=C(CSc1ccccn1)Nc1ccccc1F`, -0.346%.

For `O=C(c1ccco1)N1CCN(C(=O)c2cc(=O)[nH]c3ccccc23)CC1`, the “hERG current change (%, negative = inhibition) at 1uM” value is on record as 12.4%. In the case of `CCOC(=O)C1(CCCc2ccccc2)CCN(C(=O)c2cncs2)CC1`, the “hERG current change (%, negative = inhibition) at 1uM” value was -18.1%.

As to `CCc1ccc(NC(=S)N(CCN2CCCCC2)Cc2ccco2)cc1`, the “hERG current change (%, negative = inhibition) at 1uM” value is recorded as -34.7%. Take `CCCC(c1nnnn1Cc1ccc(OC)cc1)N1CCN(c2ccccc2OC)CC1` (centres unmarked): the “hERG current change (%, negative = inhibition) at 1uM” value turned out to be 7.87%. To `O=C1C(Nc2cccc(O)c2)=C(N2CCCCC2)C(=O)c2ccccc21` belongs 7.99%; to `COc1ccc2ccc(=O)oc2c1`, 1.86%. As for `Cc1cc(C)cc(N(CCC(=O)Nc2nnc(C3CC3)s2)S(=O)(=O)c2ccc(Cl)cc2)c1`, the figure is 11.1%; as for `CCOC(=O)C(C)N1C(=O)S/C(=C/c2cc(C)n(-c3ccccn3)c2C)C1=O` (centres unmarked), 14.8%. As for `COC(=O)c1ccc(SCc2ccccc2)nc1`, the figure is 14.9%.

For the compound `COC(=O)c1ccc(C2N=C(c3cccs3)CC(c3ccccc3O)N2)cc1` (centres unmarked), the “hERG current change (%, negative = inhibition) at 1uM” value was 12.4%. Consider `COCCn1nnnc1C(CC(C)C)N1CCN(c2nc3ccccc3s2)CC1` (centres unmarked), for which the “hERG current change (%, negative = inhibition) at 1uM” value turned out to be 3.43%. To `Cc1cc(C)nc(NC(C)(C)C(=O)O)n1` belongs 10.5%. As for `COc1ccc(C(=O)N/C(=C\c2ccccc2)C(=O)N2CCOCC2)cc1`, the figure is 9.79%; as for `Cc1cc2nnc(SCC(=O)N(C)C3CCS(=O)(=O)C3)n2c2ccccc12` (centres unmarked), 10.4%.

As to `Cc1cccc(-c2nc(=S)c3c(n2Cc2ccco2)CCCC3)c1`, the “hERG current change (%, negative = inhibition) at 1uM” value is 14.3%.

`C=CCN(c1ccccc1OC)S(=O)(=O)c1cccc(C(=O)OCC(=O)c2c[nH]c3ccccc23)c1`: the “hERG current change (%, negative = inhibition) at 1uM” value was 8.74%. To `O=C(O)Cn1c2ccccc2c2n[nH]c(=S)nc21` belongs 14.2%. As for `O=[N+]([O-])c1ccc(N2CCN(S(=O)(=O)c3ccccc3)CC2)c2cccnc12`, the figure is -75.6%; as for `O=C1C2C3c4ccccc4C(Br)(c4ccccc43)C2C(=O)N1c1ccccc1O` (centres unmarked), 14%.

Turning to `COC(CNC(=O)c1cccnc1)OC`, the “hERG current change (%, negative = inhibition) at 1uM” value is on record as 5.78%. As for `O=C(Nc1cc(-c2ccccc2)nn1-c1ccccc1F)c1ccc([N+](=O)[O-])cc1`, the figure is 1.23%. As for `O=C(Nc1ccc(/C=C/c2nc3ccccc3o2)cc1)c1c(F)cccc1F`, the figure is 7%. As for `CCN(CC)CCCNC(=O)CC1Sc2ccccc2NC1=O` (centres unmarked), the figure is 3.56%; as for `CCOc1ccc2[nH]cc(-c3csc(N)n3)c2c1`, 16.5%. `O=C(NCc1cccs1)C1CCCN1C(=O)Nc1ccc(Cl)cc1` (centres unmarked): the “hERG current change (%, negative = inhibition) at 1uM” value amounted to 22.6%. As for `COc1cccc(NC(=O)CN2C(=O)NC3(CCCC3)C2=O)c1`, the figure is 12%; as for `Cc1cc(=O)[nH]c(SCC(=O)Nc2cccc(C(F)(F)F)c2)n1`, 9.5%; as for `Cc1cc(N)ccc1NC(=O)c1ccccc1`, 11.3%. As for `COc1ccc(NC(=O)c2nc[nH]c2C(=O)Nc2ccccc2C)cc1`, the figure is 3.49%; as for `CSCc1nc2sc(C(=O)Nc3nc(C)cs3)c(C)c2c(=O)[nH]1`, -0.951%. As for `COCCOC(=O)C1=C(C)NC2=C(C(=O)CC(C)(C)C2)C1c1ccc2c(c1)OCO2` (centres unmarked), the figure is 8.04%.

For `C=CCSc1nsc(NC(=O)Nc2cccc(C(C)=O)c2)n1`, the “hERG current change (%, negative = inhibition) at 1uM” value was determined as 13.6%.

As to `CN(Cc1ccsc1)C(=O)CCc1nnc(Cc2c[nH]c3ccccc23)o1`, the “hERG current change (%, negative = inhibition) at 1uM” value is recorded as 7.16%.

For the compound `CC(NC(=O)c1sc2ccccc2c1Cl)C1CCCO1` (centres unmarked), the “hERG current change (%, negative = inhibition) at 1uM” value is -0.686%. As for `CC(=O)Oc1ccc(C2=NN(c3ccccc3)C(c3ccccc3)C2)cc1` (centres unmarked), the figure is 15.9%. Turning to `O=c1[nH]c(=O)n(C2CCCCC2)c(O)c1/C=N/N1CCCCC1c1cccnc1` (centres unmarked), the “hERG current change (%, negative = inhibition) at 1uM” value worked out at 0.596%. As for `O=c1nc2n(c3ccc([N+](=O)[O-])cc13)CCCCC2`, the figure is -5.01%. As for `Cc1ccc(C(=O)CC(Nc2ccc(F)cc2)c2ccccc2)cc1` (centres unmarked), the figure is 12.1%; as for `COc1ccc(Nc2nc(NCc3ccco3)nc(N/N=C/c3ccccc3Cl)n2)cc1`, -6.58%; as for `CC(C)c1ccccc1NC(=O)C1C2C=CC(C2)C1C(=O)O` (centres unmarked), 8.29%. As for `O=C(O)Cn1c(=O)n(Cc2ccccc2)c2ccccc21`, the figure is 19.5%.

Take `O=C(CCN=C1NS(=O)(=O)c2ccccc21)OCC(=O)c1ccc(F)c(F)c1`: the “hERG current change (%, negative = inhibition) at 1uM” value was determined as 12.7%. To `CC(=O)Nc1ccc(NC(=O)COC(=O)c2ccccc2C(=O)c2ccccc2)cc1` belongs 0.45%. To `CCOC(=O)C1(Cc2ccc(Cl)cc2)CCN(Cc2cnc(N)nc2)CC1` belongs -60.6%; to `COC(=O)CN1C(=O)[C@H]2[C@@H](c3ccc(C)o3)N3C(=O)CN(Cc4ccccn4)C(=O)[C@@]3(Cc3ccccc3)[C@H]2C1=O`, 16.9%; to `Oc1ccc(NC(=S)Nc2ccc(F)cc2)cc1`, 14.3%. As for `CCn1c(SCC(=O)NC2CC2)nnc1-c1ccc(F)cc1`, the figure is 15.3%; as for `CCOC(=O)C1CCCN(C2CC(=O)N(c3cccc(C)c3)C2=O)C1` (centres unmarked), 3.29%; as for `CCN(CC)Cc1c(O)ccc2c(=O)c(Oc3ccccc3OC)coc12`, 2.19%. In the case of `O=S(=O)(c1cccc(C(F)(F)F)c1)N1CCN(C(=S)NCc2ccco2)CC1`, the “hERG current change (%, negative = inhibition) at 1uM” value came to 25.7%. To `O=C(NCc1ccc(F)cc1)c1cc(-c2ccco2)on1` belongs 6.43%; to `CCSc1nnc(NC(=O)CSc2nnc(-c3c[nH]c4ccccc34)n2C)s1`, 9.94%; to `O=C(Nc1ccccc1-c1nnn(CC(=O)N2CCOCC2)n1)c1ccccc1F`, 11.9%. To `COCCNC(=O)[C@@H]1CSC2c3ccc(OC)c(OC)c3C(=O)N21` (some centres unmarked) belongs 19.2%; to `Cc1ccc(S(=O)(=O)/N=C(/Sc2ccccc2C(=O)O)c2ccccc2)cc1`, 16.5%. As for `O=C1CCC(C(=O)N2CCSCC2)CN1Cc1cccc(C(F)(F)F)c1` (centres unmarked), the figure is 12.5%; as for `CCOC(=O)C1=NOC(CNC(=O)c2ccccc2Cl)C1` (centres unmarked), 12.7%.

For the compound `COc1ccc(N(C(C)C(=O)N/N=C/c2ccc(OC)c(OC)c2)S(C)(=O)=O)cc1` (centres unmarked), the “hERG current change (%, negative = inhibition) at 1uM” value was determined as 17.3%.

As to `O=C(/C=C/c1ccc2c(c1)OCO2)NCCSCc1c(Cl)cccc1Cl`, the “hERG current change (%, negative = inhibition) at 1uM” value is 5.99%. As for `CSc1nnc(C)c(=O)n1COC(=O)c1ccc([N+](=O)[O-])cc1`, the figure is -1.84%; as for `OCCN1CCN(c2ncnc3sc4c(c23)CCCC4)CC1`, 4.42%. As for `Nc1ccc(S(=O)(=O)Nc2nccc(/C=C/c3ccc([N+](=O)[O-])cc3)n2)cc1`, the figure is 7.5%; as for `Cc1ccccc1OCC(=O)Nc1cc(S(=O)(=O)N2CCOCC2)ccc1N1CCCC1`, -6.9%; as for `CCC(C)NC(=O)C1CCCN(S(=O)(=O)c2ccc(-n3cnnn3)cc2)C1` (centres unmarked), 7.44%. Turning to `CCOC(=O)c1cccc(N/C=C/C(=O)c2ccc(OC)c(OC)c2)c1`, the “hERG current change (%, negative = inhibition) at 1uM” value is listed as 14.7%.

Take `COc1cc(C(=O)N/N=C/C2CC=CCC2)cc(OC)c1OC` (centres unmarked): the “hERG current change (%, negative = inhibition) at 1uM” value came to 4.88%. To `COc1cc(C)nc(Oc2ccc(/C=N/O)cc2)n1` belongs 6.8%; to `CCOCc1nnc(NC(=O)c2ccc3c(c2)OCO3)s1`, 12.4%.

With `O=C(CSc1n[nH]c(-c2cccnc2)n1)Nc1cccc(Cl)c1`, the “hERG current change (%, negative = inhibition) at 1uM” value amounted to 16.5%.

Turning to `O=C(c1c(F)cccc1F)N1CCN=C1SCc1ccccc1`, the “hERG current change (%, negative = inhibition) at 1uM” value is reported as 6.87%. To `O=C(NCCN1CCOCC1)c1ccc(CS(=O)(=O)Cc2ccccc2F)o1` belongs 3.24%; to `COc1ccc(NC(=O)CSc2nc(O)cc(=O)n2-c2ccc(OC)cc2)cc1`, 14.3%; to `Cc1cccc(C)c1OCc1cc(C(=O)NCC2CCCCC2)no1`, 14.5%.

Regarding `COCCCn1c(SCC(=O)OC2CCCCC2)nnc1-c1cccs1`, the “hERG current change (%, negative = inhibition) at 1uM” value is on record as 5.56%. On to `COc1ccc(C(=O)NNC(=O)C(=O)N2CCCCC2)cc1OC`, for which the “hERG current change (%, negative = inhibition) at 1uM” value amounted to 51.1%. Turning to `COc1ccc2oc(=O)c(C(=O)NC(C)c3ccccc3)cc2c1` (centres unmarked), the “hERG current change (%, negative = inhibition) at 1uM” value is 3.52%.

Consider `Cc1ccc(S(=O)(=O)Nc2ccc3c(c2)nc(C)n3C)cc1`, for which the “hERG current change (%, negative = inhibition) at 1uM” value worked out at 7.92%.
